Measured values taken from the supplement of paper PMC9446081.
Screen size: about 39,000 compounds; about 220 (0.56%) showed activity. Some of the results follow.
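Also: static incubation at 37 °C against the wild-type strain, values averaged over two biological replicates.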

What follows are compounds tested on Escherichia coli K-12 BW25113 (assay: relative growth (OD600 normalised to plate interquartile mean) (fraction); higher = less growth inhibition, active = 0.2 or less). Details: 50 µM; LB; incubation time: overnight (16-24 h).
For `C[C@H](CO)N1C[C@H](C)[C@H](CN(C)C(=O)Nc2ccc(C(C)(C)C)cc2)OCc2cn(nn2)CCCC1=O`, the relative growth was inactive: 1.01.
With `C[C@@H]1CN([C@H](C)CO)C(=O)Cc2cc(NC(=O)Cn3cnnn3)ccc2O[C@@H]1CN(C)C(=O)Nc1ccccc1` the relative growth was inactive: 0.962.
`C[C@H](CO)N1C[C@H](C)[C@H](CN(C)C(=O)CN(C)C)Oc2cc(C#C[C@@H](C)O)ccc2S1(=O)=O` was tested, and the relative growth was inactive: 1.02.
`C[C@@H]1CN([C@H](C)CO)C(=O)c2cc(NC(=O)c3ccccc3)ccc2O[C@@H](C)CCCCO[C@@H]1CN(C)C(=O)CCC(F)(F)F` was tested, and the relative growth was inactive: 0.978.
With `O=C(C[C@@H]1CC[C@@H]2[C@H](COC[C@@H](O)CN2C(=O)Nc2ccc3c(c2)OCO3)O1)N1CCN(c2ccccc2)CC1` the relative growth was inactive: 0.988.
With `C[C@H](CO)N1C[C@H](C)[C@H](CN(C)CC2CC2)OCCCC[C@H](C)Oc2ccc(NC(=O)Nc3ccc(F)cc3)cc2C1=O` the relative growth was inactive: 0.983.
In the case of `CC(C)c1ccc2c(c1)C(=O)[C@H](N)CCO2`, the relative growth is reported as inactive: 0.971.
`C[C@H]1CN([C@@H](C)CO)C(=O)c2cc(NC(=O)C3CC3)ccc2O[C@@H]1CN(C)S(=O)(=O)c1ccccc1` was tested, and the relative growth was inactive: 0.993.
With `COc1ccc(NC(=O)N(C)C[C@@H]2Oc3ccc(NC(=O)Nc4ccc(C(F)(F)F)cc4)cc3CC(=O)N([C@H](C)CO)C[C@@H]2C)cc1` the relative growth was inactive: 1.02.
For `CC(C)NC(=O)N(C)C[C@@H]1OCCCC[C@@H](C)Oc2ccc(NC(=O)CCCCCC(=O)Nc3ccccc3N)cc2C(=O)N([C@H](C)CO)C[C@H]1C`, the relative growth was inactive: 0.997.
For `Cc1ccc(S(=O)(=O)Nc2ccc3c(c2)C(=O)N([C@H](C)CO)C[C@H](C)[C@H](CN(C)C(=O)Nc2ccc(C(F)(F)F)cc2)OCCCC[C@H](C)O3)cc1`, the relative growth was inactive: 1.03.
For `C=CC[C@H](CC(=O)NCCO)C(=O)N[C@H](COC(=O)[C@@H](CC=C)CC(=O)OC(C)(C)C)c1ccccc1`, the relative growth was inactive: 1.01.
With `CN1C(=O)c2cc(NC(=O)c3cscn3)ccc2OC[C@@H]2O[C@H](CC(=O)N3CCOCC3)CC[C@H]21` the relative growth was inactive: 1.01.
In the case of `C[C@@H]1CN([C@H](C)CO)C(=O)c2cc(C#CCc3ccccc3)cnc2O[C@H]1CN(C)CC1CCOCC1`, the relative growth is reported as inactive: 1.02.
`COCC(=O)Nc1ccc2c(c1)C(=O)N(C)C[C@@H](OC)[C@@H](C)CN(C(=O)Cc1ccccn1)[C@@H](C)CO2` was tested, and the relative growth was inactive: 0.989.
`CCCNC(=O)N1C[C@H](O)COC[C@@H]2O[C@@H](CC(=O)NCCCN3CCOCC3)CC[C@H]21` was tested, and the relative growth was inactive: 1.02.
`C[C@H](CO)N1C[C@H](C)[C@@H](CN(C)C(=O)Nc2ccc(C(F)(F)F)cc2)OCCCC[C@H](C)Oc2ccc(NC(=O)CCC(F)(F)F)cc2C1=O` was tested, and the relative growth was inactive: 1.02.
With `C[C@@H]1CN([C@@H](C)CO)C(=O)c2cc(NC(=O)Nc3ccccc3)ccc2O[C@@H](C)CCCCO[C@H]1CN(C)C(=O)OC(C)(C)C` the relative growth was inactive: 0.998.
`C[C@H]1CN([C@@H](C)CO)C(=O)c2cc(NS(C)(=O)=O)ccc2O[C@H]1CN(C)C(=O)Nc1ccc(C(F)(F)F)cc1` was tested, and the relative growth was inactive: 1.01.
For `C[C@@H]1CN([C@@H](C)CO)C(=O)Cc2cc(NC(=O)CCN3CCOCC3)ccc2O[C@H]1CN(C)S(=O)(=O)c1ccc(F)cc1`, the relative growth was inactive: 1.01.
With `CCn1nc(C)cc1C(=O)NN` the relative growth was inactive: 1.02.
For `COc1ccc(S(=O)(=O)Nc2ccc3c(c2)C(=O)N([C@H](C)CO)C[C@H](C)[C@H](CN(C)C(=O)Nc2cccc4ccccc24)O3)cc1`, the relative growth was inactive: 1.03.
With `C=CCN1C(=O)[C@]2(O[C@H](CCn3cc(CCO)nn3)[C@@H]([Si](C)(C)c3ccc(OC)cc3)[C@@H]2C)c2cc(N3CCC3=O)ccc21` the relative growth was inactive: 1.02.
For `CCCN1C[C@@H](C)[C@H](OC)CN(C)C(=O)c2cc(NS(=O)(=O)c3cn(C)cn3)ccc2OC[C@@H]1C`, the relative growth was inactive: 0.953.
With `Nc1nc(Cl)nc2c1ncn2[C@H]1C[C@@H](O)[C@@H](COP(=O)(O)OP(=O)(O)OP(=O)(O)O)O1` the relative growth was inactive: 1.01.
With `C[N+](C)(C)CCCCNC(=O)[C@H]1C[C@H]2C(=O)N[C@@H](CCCC[N+](C)(C)C)C(=O)N2[C@H]1c1cccc(OCCO)c1` the relative growth was inactive: 1.03.
With `Cc1cc(Nc2cc(C)on2)nc([C@H]2CCN(C(=O)CN)C2)n1` the relative growth was inactive: 0.914.
In the case of `C[C@H](CO)N1C[C@H](C)[C@@H](CN(C)Cc2ccc(C(F)(F)F)cc2)OCCCC[C@H](C)Oc2ccc(NC(=O)Nc3ccccc3)cc2C1=O`, the relative growth is reported as inactive: 0.992.
`COc1cccc(NC(=O)N2C[C@H](O)COC[C@@H]3O[C@H](CC(=O)NCCCN4CCOCC4)CC[C@H]32)c1` was tested, and the relative growth was inactive: 1.02.
In the case of `COc1ccc(NC(=O)N(C)C[C@H]2OCCCC[C@@H](C)Oc3ccc(NC(=O)c4ccccc4)cc3C(=O)N([C@H](C)CO)C[C@@H]2C)cc1`, the relative growth is reported as inactive: 0.939.
`C[C@@H]1CN([C@H](C)CO)C(=O)c2cc(NC(=O)CCCCCC(=O)Nc3ccccc3N)ccc2O[C@@H](C)CCCCO[C@@H]1CN(C)S(=O)(=O)c1ccc(Cl)cc1` was tested, and the relative growth was inactive: 1.03.
`Cc1cc(N)[nH]n1` was tested, and the relative growth was inactive: 1.03.
In the case of `Cc1cc(C(=O)Nc2cccc3c2O[C@H](CN(C)C(=O)Nc2ccccc2)[C@@H](C)CN([C@H](C)CO)C3=O)n(C)n1`, the relative growth is reported as inactive: 1.01.
For `Cc1noc(C)c1S(=O)(=O)Nc1ccc2c(c1)C(=O)N([C@@H](C)CO)C[C@H](C)[C@@H](CN(C)Cc1ccc(C(F)(F)F)cc1)OCCCC[C@@H](C)O2`, the relative growth was inactive: 0.963.
`C[C@H]1CN([C@@H](C)CO)C(=O)c2cc(NS(=O)(=O)c3cccs3)ccc2O[C@H]1CN(C)C(=O)Nc1cccc2ccccc12` was tested, and the relative growth was inactive: 0.917.
In the case of `O=C(C[C@H]1C[C@H]2c3cc(NC(=O)NC4CCCC4)ccc3O[C@H]2[C@@H](CO)O1)NCc1ccc(-c2ccccc2)cc1`, the relative growth is reported as inactive: 0.984.
For `C[C@@H]1CN([C@H](C)CO)C(=O)c2cc(NS(C)(=O)=O)ccc2O[C@@H]1CN(C)Cc1ccc2c(c1)OCO2`, the relative growth was inactive: 1.01.
With `Cc1noc(C)c1S(=O)(=O)Nc1ccc2c(c1)C(=O)N([C@H](C)CO)C[C@H](C)[C@@H](CN(C)C(=O)Nc1ccc(C(F)(F)F)cc1)OCCCC[C@H](C)O2` the relative growth was inactive: 1.01.
`C[C@@H]1CN([C@H](C)CO)C(=O)Cc2cc(NC(=O)Cn3cnnn3)ccc2O[C@H]1CN(C)C(=O)Nc1ccc(F)cc1` was tested, and the relative growth was inactive: 0.988.
`Cc1ccc(S(=O)(=O)N2C[C@H](O)COC[C@@H]3O[C@@H](CC(=O)NCc4ccc(Cl)c(Cl)c4)CC[C@H]32)cc1` was tested, and the relative growth was inactive: 1.
`Cc1noc(C)c1NC(=O)Nc1ccc2c(c1)C(=O)N([C@@H](C)CO)C[C@@H](C)[C@H](CN(C)Cc1ccc(Oc3ccccc3)cc1)O2` was tested, and the relative growth was inactive: 1.01.
With `C[C@H]1CN([C@@H](C)CO)C(=O)c2cc(C#CC3CC3)cnc2O[C@@H]1CN(C)S(=O)(=O)c1cccc(F)c1` the relative growth was inactive: 1.04.
In the case of `CSc1cccc2sc(Nc3ccc(Cl)cc3)nc12`, the relative growth is reported as inactive: 0.908.
In the case of `C[C@@H]1CN([C@H](C)CO)C(=O)c2cc(C#CC3(O)CCCC3)cnc2O[C@H]1CN(C)S(=O)(=O)c1ccccc1`, the relative growth is reported as inactive: 1.03.
In the case of `Cc1nnc(NCCc2ccccc2)n(N)c1=O`, the relative growth is reported as inactive: 0.998.
For `COc1ccc(S(=O)(=O)N(C)C[C@H]2OCCCC[C@H](C)Oc3ccc(NC(=O)C4CCCCC4)cc3C(=O)N([C@H](C)CO)C[C@H]2C)cc1`, the relative growth was inactive: 1.04.
`C[C@H](CO)N1C[C@H](C)[C@@H](CN(C)C(=O)C2CCC2)Oc2cc(C#Cc3ccncc3)ccc2S1(=O)=O` was tested, and the relative growth was inactive: 1.01.
For `C[C@H](CO)N1C[C@H](C)[C@H](CN(C)S(C)(=O)=O)Oc2ccc(NC(=O)CCCN(C)C)cc2CC1=O`, the relative growth was inactive: 0.992.
In the case of `C[C@H](CO)N1C[C@H](C)[C@H](CN(C)C(=O)Nc2cccc3ccccc23)Oc2ccc(NC(=O)CCC(F)(F)F)cc2C1=O`, the relative growth is reported as inactive: 0.98.
With `C[C@H]1CN([C@@H](C)CO)C(=O)c2cccc(NC(=O)c3ccncc3)c2O[C@H]1CN(C)Cc1ccc(Oc2ccccc2)cc1` the relative growth was inactive: 1.01.
For `O=C(Nc1ccc2c(c1)[C@@H]1C[C@H](CC(=O)N3CCc4ccccc4C3)O[C@@H](CO)[C@@H]1O2)C1CCOCC1`, the relative growth was inactive: 0.984.
With `O=C(C[C@@H]1CC[C@@H]2[C@H](COC[C@@H](O)CN2S(=O)(=O)c2cccc(Cl)c2)O1)NCc1ccc2c(c1)OCO2` the relative growth was inactive: 1.03.
With `COCC(=O)N(C)C[C@H]1Oc2cc(C#Cc3ccccc3)ccc2S(=O)(=O)N([C@@H](C)CO)C[C@H]1C` the relative growth was inactive: 1.
For `O=C(C[C@@H]1C[C@H]2c3cc(NS(=O)(=O)c4ccc(F)cc4)ccc3O[C@H]2[C@@H](CO)O1)NCc1ccncc1`, the relative growth was inactive: 1.01.
With `COc1ccc(NC(=O)Nc2ccc3c(c2)C(=O)N([C@H](C)CO)C[C@@H](C)[C@@H](CN(C)C(=O)NC(C)C)OCCCC[C@H](C)O3)cc1` the relative growth was inactive: 0.999.
With `Cc1ccc(S(=O)(=O)Nc2ccc3c(c2)C(=O)N([C@H](C)CO)C[C@H](C)[C@H](CN(C)S(=O)(=O)c2ccc(Cl)cc2)OCCCC[C@H](C)O3)cc1` the relative growth was inactive: 1.01.
For `C[C@@H]1CCCCO[C@H](CN(C)C(=O)Nc2ccc(C(F)(F)F)cc2)[C@@H](C)CN([C@@H](C)CO)C(=O)c2cc(NC(=O)Nc3ccc(C(F)(F)F)cc3)ccc2O1`, the relative growth was inactive: 0.989.
In the case of `C[C@@H]1CCCCO[C@@H](CN(C)Cc2ccc(C(=O)O)cc2)[C@H](C)CN([C@@H](C)CO)C(=O)c2cc(NC(=O)Nc3ccc(C(F)(F)F)cc3)ccc2O1`, the relative growth is reported as inactive: 0.865.
